We go through 89 compounds from publication PMC4336329 (PLoS ONE, 2015).

The whole screen tested about 310,000 compounds, of which about 14,000 (4.5%) showed an effect of 50% or more. The effect is printed as a negative number. Some of the results follow.
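Note: peak tail current of the secondary pulse compared with the same well before compound.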

Sequence of human ether-à-go-go-related gene (hERG) potassium channel (Q12809 whole entry, looked up): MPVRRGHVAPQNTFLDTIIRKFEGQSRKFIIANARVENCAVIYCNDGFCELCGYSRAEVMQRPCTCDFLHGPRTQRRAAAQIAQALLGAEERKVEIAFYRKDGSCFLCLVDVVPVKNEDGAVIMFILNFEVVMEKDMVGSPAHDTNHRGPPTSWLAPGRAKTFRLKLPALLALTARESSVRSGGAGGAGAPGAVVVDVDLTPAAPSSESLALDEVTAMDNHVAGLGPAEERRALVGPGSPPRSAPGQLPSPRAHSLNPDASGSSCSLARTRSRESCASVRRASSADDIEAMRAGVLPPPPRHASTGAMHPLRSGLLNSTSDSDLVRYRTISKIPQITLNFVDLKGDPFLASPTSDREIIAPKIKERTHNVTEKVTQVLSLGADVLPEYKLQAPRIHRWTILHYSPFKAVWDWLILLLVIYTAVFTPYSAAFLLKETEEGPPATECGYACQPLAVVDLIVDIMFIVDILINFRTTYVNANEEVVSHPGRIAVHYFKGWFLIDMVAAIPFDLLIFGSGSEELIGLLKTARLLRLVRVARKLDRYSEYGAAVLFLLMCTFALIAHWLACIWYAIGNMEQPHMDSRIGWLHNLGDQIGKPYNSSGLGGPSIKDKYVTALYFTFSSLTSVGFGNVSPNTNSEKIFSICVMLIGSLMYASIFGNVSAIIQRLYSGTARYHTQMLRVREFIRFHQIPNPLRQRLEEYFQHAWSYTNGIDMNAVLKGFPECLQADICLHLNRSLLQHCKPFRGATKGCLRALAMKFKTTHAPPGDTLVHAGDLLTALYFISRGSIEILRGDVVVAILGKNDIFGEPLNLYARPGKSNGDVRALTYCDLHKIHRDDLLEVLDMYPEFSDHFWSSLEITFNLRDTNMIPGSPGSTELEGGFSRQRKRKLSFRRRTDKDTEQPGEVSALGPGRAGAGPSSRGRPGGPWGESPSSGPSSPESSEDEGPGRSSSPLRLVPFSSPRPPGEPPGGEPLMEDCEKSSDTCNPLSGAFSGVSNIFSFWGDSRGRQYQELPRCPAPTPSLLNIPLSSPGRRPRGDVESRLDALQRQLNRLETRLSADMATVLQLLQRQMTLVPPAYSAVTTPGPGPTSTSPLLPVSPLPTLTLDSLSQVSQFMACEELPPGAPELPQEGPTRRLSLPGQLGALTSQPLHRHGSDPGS

The test addresses human ether-à-go-go-related gene (hERG) potassium channel (human, UniProt Q12809). The test is described as follows: primary screen, population patch clamp on CHO cells stably expressing hERG.
Consider `Cc1cc(/C=C(\C#N)C(=O)O)c(C)n1CC(C)C`, for which the “hERG current change (%, negative = inhibition) at 10uM” value came to 17.2%. Next, `COc1cccc(COC(=O)c2sc3nc4n(c(=O)c3c2C)CCC4)c1OC`: 11%; `CC(OC(=O)c1cccc(S(=O)(=O)N2CCCC2)c1)C(=O)NC1CCCCC1C` (centres unmarked): -7.21%; `CCCc1nc2ccc(NC(=O)c3ccco3)cc2c(=O)n1Cc1ccc(Cl)cc1`: -5.77%. As to `CCCCCCCNC(=O)C1(CC2CC(c3cccc(Br)c3)=NO2)CCNCC1` (centres unmarked), the “hERG current change (%, negative = inhibition) at 10uM” value is -70.3%. Consider `CCOC(=O)Cn1c(=O)oc2cc(S(=O)(=O)N3CCn4c3nc3ccccc34)ccc21`, for which the “hERG current change (%, negative = inhibition) at 10uM” value is on record as -56.3%. The same measure for `O=C(O)C1Cc2[nH]cnc2C(c2cccc([N+](=O)[O-])c2)N1` (centres unmarked): 17.4%; for `C1CCCCCC2(CCCCC1)OCC(CN1CCOCC1)O2` (centres unmarked): -20.5%; for `Cc1ccc2c(c1)N(CC(=O)NCc1ccco1)C(=O)C(C(C)C)O2` (centres unmarked): -0.337%. Consider `CCOC(=O)c1c(C)oc2c1cc(O)c1ccccc12`, for which the “hERG current change (%, negative = inhibition) at 10uM” value came out at 2.35%. The same measure for `CC12CC3CC(C)(C1)CC(Nc1nc(N4CCOCC4)nc4ccccc14)(C3)C2`: 11.9%. Regarding `C=CCNC(=O)c1onc(CSc2ccc(Cl)cc2)c1C(=O)NCC=C`, the “hERG current change (%, negative = inhibition) at 10uM” value is reported as -36.6%. Turning to `CCN(CC)c1ccc(NC(=O)C2=CC=CN3CCS(=O)(=O)N=C23)cc1`, the “hERG current change (%, negative = inhibition) at 10uM” value is reported as -2.98%. Regarding `CC(C)(C)c1ccc(OCc2ccc(C(=O)NCc3cccnc3)o2)cc1`, the “hERG current change (%, negative = inhibition) at 10uM” value was -10.2%. Turning to `CC1CCCCN1C(=O)c1cc(F)c(F)cc1Cl` (centres unmarked), the “hERG current change (%, negative = inhibition) at 10uM” value turned out to be 3.93%. Next, `O=C(Nc1ccc(Cl)c(S(=O)(=O)N2CCOCC2)c1)c1ccc2c(c1)OCCO2`: 12.6%; `C/C(=N\Nc1c(Cl)c(Cl)nc(C(=O)O)c1Cl)c1ccc(O)cc1`: 13.7%. Next, `O=C(/C(=C/c1cccnc1)n1ccnc1)c1ccc(Cl)cc1Cl`: -28.9%; `Cc1nnc(SCC(=O)Nc2nsc(-c3ccccc3)n2)s1`: 4.36%; `Cc1c(C(=O)NC(=S)NCc2cccnc2)cccc1[N+](=O)[O-]`: 1.11%. `O=C(O)CCc1ccc(-c2ccc(F)cc2)n1NC(=O)c1ccco1`: the “hERG current change (%, negative = inhibition) at 10uM” value was 8.01%. For the compound `O=C(CNC(=O)c1ccc(Cl)cc1)c1ccc(Cl)cc1`, the “hERG current change (%, negative = inhibition) at 10uM” value came out at 7.28%. The same measure for `O=C(Nc1ccccc1F)c1ccc2c(c1)OCO2`: 15.7%; for `CC(NC(=O)c1ccccc1OC(F)F)c1ccc(-n2ccnc2)cc1` (centres unmarked): -55%; for `CC(CCc1ccccc1)NC(=O)Cc1cccs1` (centres unmarked): -0.424%. Take `Cc1ccc(NC(=O)c2cccc(OC(F)F)c2)c(OC(F)F)c1`: the “hERG current change (%, negative = inhibition) at 10uM” value is reported as -36.2%.

Turning to `COc1cc(OC)c(OC)cc1CNc1nnnn1C`, the “hERG current change (%, negative = inhibition) at 10uM” value is -15.9%. On to `Cc1c(CC(=O)NCC(=O)O)c(=O)oc2cc3oc4c(c3cc12)CCCC4`, for which the “hERG current change (%, negative = inhibition) at 10uM” value was 24.8%. The same measure for `COc1ccccc1N1CCN(CCc2ccccc2)CC1`: -59.4%.

On to `Cc1ccc(S(=O)(=O)N(C)c2ccc(C(=O)Nc3ccccc3C(=O)N3CCOCC3)cc2)cc1`, for which the “hERG current change (%, negative = inhibition) at 10uM” value is 11%. Turning to `CC1Sc2ccc(S(=O)(=O)N3CCC(C(=O)N(C)Cc4ccccc4)CC3)cc2NC1=O` (centres unmarked), the “hERG current change (%, negative = inhibition) at 10uM” value is 2.13%. Take `CCCc1nnc(NC(=O)CCC(=O)N2CCN(C3CCCC3)CC2)s1`: the “hERG current change (%, negative = inhibition) at 10uM” value was found to be 1.48%. Next, `CC(C)(C)c1nn(-c2ccccc2)c2[nH]c(=O)c(CNCc3ccco3)cc12`: -26%. On to `COc1ccc(-c2noc(C3CCCN(C(=O)Nc4ccccc4F)C3)n2)cc1` (centres unmarked), for which the “hERG current change (%, negative = inhibition) at 10uM” value is listed as -10.2%. In the case of `CCc1ccc(CN2CCC(Oc3ccc(C(=O)N4CCCC4)cc3)CC2)cc1`, the “hERG current change (%, negative = inhibition) at 10uM” value is on record as -81.3%. Consider `CCOC(C(=O)OCC(O)CN(CC)CC)(c1ccccc1)c1ccccc1.Cl` (centres unmarked), for which the “hERG current change (%, negative = inhibition) at 10uM” value is listed as -5.25%. `O=C(CN1CCC(NC(=O)c2ccco2)CC1)Nc1ccccc1[N+](=O)[O-]`: the “hERG current change (%, negative = inhibition) at 10uM” value is -23.8%. Regarding `N#Cc1ccccc1NS(=O)(=O)c1cc2c3c(c1)CCC(=O)N3CCC2`, the “hERG current change (%, negative = inhibition) at 10uM” value was 7.45%. As for `CC(=O)NC1CC2CCCC(C1)N2` (centres unmarked), the “hERG current change (%, negative = inhibition) at 10uM” value was 13.9%. Consider `COc1ccc2c(c1)[nH]c1c(=O)n(CCCn3ccnc3)cnc12`, for which the “hERG current change (%, negative = inhibition) at 10uM” value is given as -35.1%. Take `O=C(NC1CCCC1)C1CCN(c2cnccn2)CC1`: the “hERG current change (%, negative = inhibition) at 10uM” value stood at 26.5%. Consider `CN(CC(=O)Nc1ccc(N2CCOCC2)cc1)C(=O)CSc1ccccc1F`, for which the “hERG current change (%, negative = inhibition) at 10uM” value came to 2.68%.

Take `FC(F)(F)c1cnc(Oc2ccccc2-c2nnc(-c3ccc(Cl)cc3)o2)c(Cl)c1`: the “hERG current change (%, negative = inhibition) at 10uM” value is -1.52%. `O=C(c1ccc(Cl)cc1)C1CCCN(Cc2cccc3ncccc23)C1` (centres unmarked): the “hERG current change (%, negative = inhibition) at 10uM” value is on record as -52.1%. For `O=C(NCCCCCCCCCNC(=O)C(F)(F)F)C(F)(F)F`, the “hERG current change (%, negative = inhibition) at 10uM” value is listed as -4.99%. As for `CSc1ncccc1C(=O)NC1CCCCCCC1`, the “hERG current change (%, negative = inhibition) at 10uM” value is listed as 16%. Next, `O=C(CSc1n[nH]c(-c2cccnc2)n1)Nc1ccc(Br)cc1`: -0.858%; `O=C(CCn1cnc2ccccc2c1=O)Nc1cccc(Cl)c1Cl`: 35.3%; `Brc1ccc(C2=CC(c3ccco3)n3ncnc3N2)cc1` (centres unmarked): -19.5%. In the case of `COc1ccc(C(C)=O)cc1Cn1nc(C)c([N+](=O)[O-])c1C`, the “hERG current change (%, negative = inhibition) at 10uM” value was found to be 18.5%.

Regarding `Cc1ccc(C(=O)NCCNC(=O)c2cccnc2)cc1`, the “hERG current change (%, negative = inhibition) at 10uM” value is 11.6%.

For the compound `O=C(NCCN1C(=O)C2C3C=CC(C3)C2C1=O)Nc1ccccc1` (centres unmarked), the “hERG current change (%, negative = inhibition) at 10uM” value is -8.29%. Regarding `CC(C)(C)c1ccc(C(=O)N2CCN(c3nc4ccccc4o3)CC2)cc1`, the “hERG current change (%, negative = inhibition) at 10uM” value came out at 5.49%. The same measure for `COc1cc([N+](=O)[O-])ccc1NC(=O)COC(=O)CCS(=O)(=O)c1ccc(C)cc1`: -24.3%. Take `Cc1sc2ncnc(OCC(=O)N3CCN(C(=O)c4ccco4)CC3)c2c1C`: the “hERG current change (%, negative = inhibition) at 10uM” value is on record as -30.8%. Turning to `COc1ccc(NS(=O)(=O)c2cc(NC(=O)/C=C/c3cc(OC)ccc3OC)ccc2N2CCCCC2)cc1`, the “hERG current change (%, negative = inhibition) at 10uM” value was -10.6%. With `Br.CCCCCCCC1CC(CSC(=N)N)OC1=O` (centres unmarked), the “hERG current change (%, negative = inhibition) at 10uM” value is listed as -44.2%. As for `Cc1cccc2c(=O)c(C(=O)NCCc3ccccc3)c[nH]c12`, the “hERG current change (%, negative = inhibition) at 10uM” value was 21.9%. For `COC(=O)c1cccc(NC(=O)CN2CCN(c3ccc(OC)cc3)CC2)c1`, the “hERG current change (%, negative = inhibition) at 10uM” value is -17.8%.

Regarding `Cc1ccc(C)c(NS(=O)(=O)c2cc(C(=O)NCc3ccccn3)ccc2C)c1`, the “hERG current change (%, negative = inhibition) at 10uM” value was -48.7%. In the case of `Cc1nn(-c2ccc(N3CCOCC3)nn2)c(C)c1CCC(=O)NCc1ccc(F)cc1`, the “hERG current change (%, negative = inhibition) at 10uM” value is on record as 3.27%.

With `CCn1ncc(C(=O)Nc2cccc(Cl)c2)c1C`, the “hERG current change (%, negative = inhibition) at 10uM” value is -24.1%. Next, `CC(C)C(OC(=O)c1ccco1)C(=O)NCc1cccs1` (centres unmarked): -0.362%; `Cc1cnc(NS(=O)(=O)c2ccc(Cl)cc2)c(Br)c1`: 12.9%; `COc1ccc(OC)c(S(=O)(=O)N(C)CC(=O)Nc2ccc3c(c2)OCO3)c1`: -20.8%. Take `Cc1cc(Nc2ccccc2)nn1C(=O)c1ccccc1`: the “hERG current change (%, negative = inhibition) at 10uM” value is -6.06%. For `COc1ccc(Cl)cc1NC(=O)c1nnn(CC(=O)Nc2ccc(OC)c(OC)c2)c1N`, the “hERG current change (%, negative = inhibition) at 10uM” value came to 15.1%.

`Cl.c1ccc(COc2cccc(CNCc3cccs3)c2)cc1`: the “hERG current change (%, negative = inhibition) at 10uM” value is -30.8%.

As for `COc1ccc(N(C(=O)c2snc(C(N)=O)c2N)C(CC(C)C)C(=O)NCC2CCCO2)cc1` (centres unmarked), the “hERG current change (%, negative = inhibition) at 10uM” value is recorded as -14.8%. As for `Cc1ccc2c(c1)C1CN(C)CCC1N2C(=O)COc1ccccc1F` (centres unmarked), the “hERG current change (%, negative = inhibition) at 10uM” value is -4.18%. Consider `COc1ccc(-n2ncc3c2CC(C)(C)CC3NC(=O)CSc2ccccn2)cc1` (centres unmarked), for which the “hERG current change (%, negative = inhibition) at 10uM” value is listed as -68%. As for `CC(=O)Nc1c(O)nc(SCC(=O)N2CCCCC2)[nH]c1=O`, the “hERG current change (%, negative = inhibition) at 10uM” value is on record as 13.5%. `NS(=O)(=O)c1cc2c(cc1Cl)NC(C(Cl)Cl)NS2(=O)=O` (centres unmarked): the “hERG current change (%, negative = inhibition) at 10uM” value came to 20.2%. Turning to `CN(CC(=O)Nc1ccc(Cl)cc1)C(=O)CNC(=O)c1ccc2ccccc2c1`, the “hERG current change (%, negative = inhibition) at 10uM” value worked out at 8.98%.

On to `CC(=O)Nc1ccc(C2=CC(=O)C[C@H](c3ccc4c(c3)OCO4)C2)cc1`, for which the “hERG current change (%, negative = inhibition) at 10uM” value is reported as -12.5%.

Turning to `O=C(O)CSc1nc2ccccc2[nH]1`, the “hERG current change (%, negative = inhibition) at 10uM” value was 15.4%. On to `Cc1cccc(NC(=O)c2nc[nH]c2C(=O)NCC(=O)OC(C)(C)C)c1`, for which the “hERG current change (%, negative = inhibition) at 10uM” value is 12.1%. For `CCOC(=O)Cc1csc(NS(=O)(=O)c2ccc(Cl)cc2)n1`, the “hERG current change (%, negative = inhibition) at 10uM” value is listed as -5.9%. For `CCCN(CCC)CCNC(=O)c1cc2c(=O)n(C)c3ccccc3c2n1C`, the “hERG current change (%, negative = inhibition) at 10uM” value is given as -35.1%. The same measure for `O=C(C1CCC(CNS(=O)(=O)c2ccccc2)CC1)N1CCOCC1` (centres unmarked): 17.3%; for `COc1ccc(C(=O)NCCNC(=O)c2cc(OCC(F)(F)F)ccc2OCC(F)(F)F)cc1`: 3.98%; for `Cc1c(C)n(Cc2ccccc2)c2ncnc(NCCN(C)C)c12`: -16%. `CCC1CCCCN1C(=O)CCNC(=O)Cn1cnc2ccccc2c1=O` (centres unmarked): the “hERG current change (%, negative = inhibition) at 10uM” value stood at 20.6%. The same measure for `COc1ccccc1CNS(=O)(=O)CC12CCC(CC1=O)C2(C)C` (centres unmarked): -12.6%; for `CC(=O)NCCOC(=O)c1nn(Cc2ccccc2)c(=O)c2ccccc12`: -22.4%; for `COc1cc(NC2c3ccccc3C(=O)N2Cc2ccccc2Cl)cc(OC)c1OC` (centres unmarked): -0.846%. Next, `c1ccc(-c2nn3c(C4CCCCC4)nnc3s2)nc1`: 7.48%; `Cc1cc(C)cc(-n2ccnc2SCC(=O)O)c1`: 6.99%.

For the compound `CCOC(=O)c1c(C)[nH]c(C(=O)COC(=O)c2ccncc2)c1C`, the “hERG current change (%, negative = inhibition) at 10uM” value is given as -2.44%.
